The structures appear in SMILES notation. Screen size: about 52,000 compounds; about 1,700 (3.3%) were called active. No stated cut-off is given here; in the data, active means survival mostly below about 52% (no sharp cut-off); inactive means mostly above about 56%. The list shows a part of the results.

This test relates to Wild type. Briefly: growth inhibition of S. aureus wild type versus tarO mutant, primary screen, teichoic acid synthesis inhibitors, RN4220, OD600 (AID 463173). Conditions: S. aureus RN4220 wild type/DeltatarO growth, OD600, 18 h, stronger effect = lower value, screened at 18.75 µg/mL (by protocol).
`Cc1c(C(=O)NN=C2CCCCCC2)nnn1-c1nonc1N`: the survival was inactive: 99%. As to `CCc1nc(SC)ncc1C(=O)N1CCN(c2cc(Cl)ccc2C)CC1`, the survival was inactive: 66%. On to `Cc1nn(C(C)C(=O)Nc2ccc(C(C)C)cc2)c(=O)c2c1sc1ccccc12` (configuration not stated), for which the survival was inactive: 83%. On to `CCCN(CCC)CCCNC(=O)c1cnn(-c2ccc(F)cc2)c1-n1cccc1`, for which the survival is inactive: 118%. In the case of `COc1cc(-c2nc(SCC(=O)Nc3ccc(C)cc3)c(-c3ccc(F)cc3)[nH]2)cc(OC)c1OC`, the survival was inactive: 106%.

On to `COc1cc(/C=C(\C#N)c2nc3ccccc3[nH]2)ccc1OCc1ccc(F)cc1`, for which the survival is inactive: 75%. Take `CCc1ccccc1NC(=O)c1cc(S(=O)(=O)N2CCc3ccccc32)ccc1F`: the survival is inactive: 76%. On to `Cc1nnc(SCC#N)n1C`, for which the survival was inactive: 103%. The result for `CCCn1c2ccccc2c2cnn(CC(=O)NCC3CCN(Cc4ccc(F)cc4)CC3)c(=O)c21` reads inactive: 74%; that for `COc1ccccc1CNc1nc(-c2ccco2)nn1C(=O)c1cc(OC)c(OC)c(OC)c1`, inactive: 69%.

Take `Cc1cccc(-c2nn3c(=O)cc(CN4CCN(C(=O)c5ccccc5Br)CC4)nc3s2)c1`: the survival was inactive: 143%.

`C#CC(C)(CC)NC(=O)Cn1nnc(-c2ccc(OCc3ccccc3C)cc2)n1` (configuration not stated): the survival was inactive: 143%.

Turning to `COc1ccccc1N1CCN(C(=O)c2cnn(-c3cccc(Cl)c3)c2C2CCN(C(=O)OC(C)(C)C)CC2)CC1`, the survival is inactive: 83%. As to `Cc1ccccc1CNC(=O)C1=Cc2ccccc2OC1`, the survival was inactive: 77%. As to `CCOC(=O)c1c(C)[nH]c(CCC(=O)NCc2ccc(OC)c(OC)c2)c1C`, the survival is inactive: 68%. The result for `CCn1c2ccccc2c2nnc(N3CCN(c4cccc(Cl)c4)CC3)nc21` reads inactive: 72%; that for `COc1ccc(S(=O)(=O)N2CCC(N3CCN(Cc4ccccc4)C(=O)C3=O)CC2)cc1`, inactive: 75%; that for `CCC(=O)OCCN1C(=O)c2ccccc2C1=O`, inactive: 101%. Turning to `Cc1ccc(N2CCn3c2nc2c3c(=O)n(C/C=C/c3ccccc3)c(=O)n2C)cc1C`, the survival is inactive: 76%. On to `CCc1ccc(NC(=O)CCc2c(C)nc3nc(-c4cc(OC)cc(OC)c4)nn3c2C)cc1`, for which the survival was inactive: 134%. The result for `CSc1nn(CC(=O)Nc2ccccc2F)c(N)c1S(=O)(=O)c1ccccc1` reads inactive: 90%; that for `COc1ccc(CNC(=O)Cc2c(C)c3cc4c(C)coc4cc3oc2=O)cc1`, inactive: 88%; that for `COc1ccc(-c2noc(CCCC(=O)Nc3cccc(Cl)c3C)n2)cc1`, inactive: 91%.

Turning to `Cc1ccc(CN2CCSc3ccc(C(=O)NCc4ccc(OC(C)C)cc4)cc32)cc1`, the survival is inactive: 81%. As for `CC1CN(C(C)(C)C)CCC1(O)c1ccccc1` (configuration not stated), the survival was inactive: 108%. As for `COc1ccccc1-c1c(C)nn2c(-c3ccccc3)cc(-c3ccccc3)nc12`, the survival is inactive: 77%. On to `CCOc1ccc(C2=NC(c3ccncc3)=Nc3ccc(C)cc3N2)cc1OCC`, for which the survival was inactive: 119%.

`COCc1cc(C)nc2sc(C(=O)Nc3ccccc3O)c(N)c12`: the survival is inactive: 93%. Take `Cc1ccc(OCCn2cc(C(=O)c3cccs3)c3ccccc32)cc1`: the survival was inactive: 73%. `COc1ccc(C2CC(=O)c3c([nH]c(C(=O)OCc4ccccc4)c3C)C2)cc1` (configuration not stated): the survival was inactive: 90%. The result for `Cc1ccccc1NC(=O)c1cc2c(-c3ccccc3)nn(-c3ccccc3)c2s1` reads inactive: 86%. Take `Cc1cc(C)nc(N(C#N)CCOc2ccc(Cl)cc2)n1`: the survival is inactive: 109%. The result for `COc1ccc(N(Cc2ccccc2)C(=O)c2nc(S(C)(=O)=O)ncc2Cl)cc1` reads inactive: 61%.

Consider `COc1ccccc1NC(=O)C1=C(C)Nc2c(C(=O)Nc3ccc(C)cc3)cnn2C1c1cccc(OC)c1OC` (configuration not stated), for which the survival is active: 14%. `COc1ccc(CNC(=O)Cn2c(=O)nc(-c3ccccc3)c3cc(Cl)ccc32)cc1OC`: the survival is inactive: 68%.

`CCCSCCCNC(=O)C1CCN(C(=O)c2cnn(-c3ccccc3)c2-n2cccc2)CC1`: the survival was inactive: 102%. The result for `COc1cccc(C(=O)Nc2ccc(-n3nncc3-c3ccccc3)cc2)c1OC` reads inactive: 113%. Take `Cc1cccc(N2CCN(C(=O)Cn3nc(C)c4sc5ccccc5c4c3=O)CC2)c1C`: the survival is inactive: 66%.

For the compound `CCc1ccc(NCc2cc3ccc(OC)cc3n(CC(=O)Nc3ccccc3C)c2=O)cc1`, the survival is inactive: 84%. For the compound `CS(=O)(=O)c1ccc2nc(NC(=O)CN3C(=O)c4ccccc4C3=O)sc2c1`, the survival was inactive: 106%. Take `COc1ccc(NC(=O)CSc2nc(-c3cccs3)cc(C(F)(F)F)n2)cc1Cl`: the survival was inactive: 64%. The result for `CCc1ccccc1S(=O)(=O)Cc1ccc(C(=O)NCc2ccc(Cl)cc2)o1` reads inactive: 76%; that for `COC(=O)c1ccc(Cl)cc1NC(=O)Nc1nnc(N(C)C2CCCCC2)s1`, inactive: 84%. As to `COc1ccc(CCC(=O)NCc2ccc3c(c2)CCN3C(=O)c2ccc(Cl)cc2)cc1`, the survival is inactive: 80%. As for `Cc1ccc(CNC(=O)C(NS(=O)(=O)c2cccs2)C(C)C)cc1` (configuration not stated), the figure is inactive: 78%; as for `Cc1ccc(CSC2=Nc3ccccc3C3=NC(CCC(=O)NC4CCCCC4)C(=O)N23)cc1` (configuration not stated), inactive: 128%; as for `Cc1ccc(/C(C#N)=C\c2ccco2)cc1`, inactive: 118%.

Turning to `CCc1c(C)sc2c1CCN(Cc1cccc(OC)c1)C2c1ccccc1` (configuration not stated), the survival is inactive: 47%.

As to `CCc1ccc(C(=O)CC2(O)C(=O)N(CCc3ccccc3)c3ccc(Br)cc32)cc1` (configuration not stated), the survival was inactive: 36%. As for `CCCCN(CCCC)CCNC(=O)Cn1nc(CC)n2c(cc3sccc32)c1=O`, the survival is inactive: 89%.

Regarding `CCC1=Nc2cc(C(=O)NCCc3ccc(OC)c(OC)c3)ccc2Sc2ccccc21`, the survival is inactive: 77%. The result for `O=C1S/C(=C/c2ccccc2)C(=O)N1c1ccccc1` reads inactive: 101%; that for `CC(=O)c1cccc(NC(=O)CSc2nc3c(c(=O)[nH]2)CCC3)c1`, inactive: 82%; that for `c1ccc(CN2CCN(c3nc(N4CCOCC4)c4ccccc4n3)CC2)cc1`, inactive: 102%.

Regarding `COc1ccc(-n2nc3ccc(NC(=O)c4c(OC)cccc4OC)cc3n2)cc1`, the survival is inactive: 137%. In the case of `O=C(Cn1c(=O)n(-c2ccc(F)cc2)c(=O)c2sc3ccccc3c21)NC1CCCC1`, the survival was inactive: 88%. For `CCc1ccc2oc(C(=O)Nc3ccccc3OC)cc(=O)c2c1`, the survival is inactive: 85%.

(Values after PubChem BioAssay AID463173 (ICCB-Longwood Screening Facility, Harvard Medical School, 2010).)
